Hit rate of the full screen: of about 310,000 compounds, about 14,000 (4.5%) showed an effect of 50% or more. Effects have a minus sign here. This is one part of the list.
Target: human ether-à-go-go-related gene (hERG) potassium channel (human, UniProt Q12809)
Assay: primary screen, population patch clamp on CHO cells stably expressing hERG
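Also: peak tail current of the secondary pulse compared with the same well before compound.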

Chain of human ether-à-go-go-related gene (hERG) potassium channel (Q12809 whole entry, looked up): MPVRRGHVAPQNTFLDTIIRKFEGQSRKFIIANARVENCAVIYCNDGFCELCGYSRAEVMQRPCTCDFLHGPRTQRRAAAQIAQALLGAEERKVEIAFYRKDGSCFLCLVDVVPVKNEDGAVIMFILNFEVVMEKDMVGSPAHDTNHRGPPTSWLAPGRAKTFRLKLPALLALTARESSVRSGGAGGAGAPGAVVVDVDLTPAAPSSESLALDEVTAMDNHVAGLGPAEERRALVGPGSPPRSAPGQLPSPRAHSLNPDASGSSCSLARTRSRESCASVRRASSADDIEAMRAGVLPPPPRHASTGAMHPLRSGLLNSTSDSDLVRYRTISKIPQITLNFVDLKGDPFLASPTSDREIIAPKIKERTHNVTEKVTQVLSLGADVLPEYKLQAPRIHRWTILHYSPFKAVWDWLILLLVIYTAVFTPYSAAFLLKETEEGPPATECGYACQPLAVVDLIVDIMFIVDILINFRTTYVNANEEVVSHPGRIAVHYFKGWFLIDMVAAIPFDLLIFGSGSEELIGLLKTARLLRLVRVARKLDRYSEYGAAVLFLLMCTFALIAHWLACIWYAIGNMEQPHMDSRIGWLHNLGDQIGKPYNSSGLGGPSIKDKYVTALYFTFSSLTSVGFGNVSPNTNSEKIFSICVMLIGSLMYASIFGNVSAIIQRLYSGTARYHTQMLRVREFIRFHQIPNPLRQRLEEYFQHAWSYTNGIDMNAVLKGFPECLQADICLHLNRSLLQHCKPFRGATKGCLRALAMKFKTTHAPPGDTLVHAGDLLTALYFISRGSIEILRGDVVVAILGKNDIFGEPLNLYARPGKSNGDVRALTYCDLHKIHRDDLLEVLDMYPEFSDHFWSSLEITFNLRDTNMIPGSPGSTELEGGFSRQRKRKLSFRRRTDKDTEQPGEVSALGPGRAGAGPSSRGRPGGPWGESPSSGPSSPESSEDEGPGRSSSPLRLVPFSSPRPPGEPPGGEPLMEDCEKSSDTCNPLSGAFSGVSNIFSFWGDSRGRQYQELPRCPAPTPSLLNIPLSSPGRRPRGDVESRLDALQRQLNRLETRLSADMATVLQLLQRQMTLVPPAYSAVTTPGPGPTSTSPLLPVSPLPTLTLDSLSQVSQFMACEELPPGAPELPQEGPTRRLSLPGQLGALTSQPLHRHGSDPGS

Point of comparison: `Cc1ncc(CC(=O)n2cc(C(=O)c3cc(F)ccc3O)cn2)s1`, “hERG current change (%, negative = inhibition) at 10uM” value -17.7%. Against it:
- Nc1ccc(-c2ccc(C(=O)O)s2)cn1 — higher, 8.16%
- O=C(Nc1ccc2c(c1)OCCO2)C1CCCN(S(=O)(=O)c2cccs2)C1 (centres unmarked) — higher, 4.28%
- COc1ccc(CN(C(=O)c2snc(C(N)=O)c2N)C(CC(C)C)C(=O)NC2CCCCC2)cc1 (centres unmarked) — higher, -9.95%
- O=C(NCc1nc(-c2ccccc2)no1)c1ccc(Br)o1 — higher, -6.85%
- O=C(O)CCCC(=O)Nc1ccccc1C(=O)N1CCOCC1 — higher, 10.5%
- Cc1cc(CNC(=O)c2cccnc2Cl)c2ccccc2n1 — higher, -2.82%
- C[N+](C)(C)CC(=O)Nc1ccc(Cl)cc1C(=O)c1ccccc1.[Br-] — higher, 21.4%
- NC(=O)c1ccccc1N/C=C/C(=O)c1ccco1 — higher, 10.5%
- NC(=O)CN(N=Nc1cccc([N+](=O)[O-])c1)c1cccc([N+](=O)[O-])c1 — higher, -12.8%
- Cc1ccccc1CCNCc1cc2cccc(C)c2[nH]c1=O — lower, -52.2%
- COc1ccc(C(=O)O)cc1S(N)(=O)=O — higher, 11.3%
- CCOc1ccc(S(=O)(=O)Nc2cccc(N(C)S(C)(=O)=O)c2)cc1 — higher, 4.37%
- O=C(CCN1C(=O)COc2ccccc21)NCCCN1CCCC1 — higher, 10.3%
- COc1ccc2[nH]cc(C(=O)NCCc3ccccc3)c(=O)c2c1 — higher, 9.85%
- O=C(Nc1ccncc1)C1CCN(S(=O)(=O)c2ccccc2C(F)(F)F)CC1 — higher, -15.2%
- CC1(C)CC(=O)C2=C(C1)OC(N)=C(C#N)C21C(=O)N(Cc2ccccc2Cl)c2ccccc21 (centres unmarked) — higher, 15.3%
- O=C(NCc1ccccn1)C(=O)Nc1cc2c3c(c1)CC(=O)N3CCC2 — higher, 8.15%
- CCOc1ccc(NC(=O)Nc2c(C)n(C)n(-c3ccccc3)c2=O)cc1 — higher, 32%
- Cn1c(=O)c2cc3c(nc2n(C)c1=O)CC(c1ccccc1)CC3=O (centres unmarked) — higher, -3.1%
- COc1ccccc1NC(=O)COC(=O)c1cn(C)c2ccccc12 — higher, -2.15%
- O=C1C2C3CCC(C3)C2C(=O)N1CNc1ccccc1 (centres unmarked) — higher, 7.37%
- Cc1ccccc1NC(=O)c1cccc(NC(=O)c2c(C(=O)O)cccc2[N+](=O)[O-])c1 — higher, -4.29%
- Cc1ccc(-c2nc(Nc3ccc(N4CCOCC4)cc3)c3ccccc3n2)cc1 — higher, 7.63%
- Nn1cnnc1SC1CCCCC1NS(=O)(=O)c1ccccc1 (centres unmarked) — higher, 13.9%
- O=C(/C=C/c1cccc([N+](=O)[O-])c1)N(c1ccccn1)c1ccccn1 — lower, -35.8%
- COCCCn1c(C(=O)N2CCOCC2)cc2c(=O)n3cccc(C)c3nc21 — higher, -11.4%
- c1ccc(CSc2nnc(SCc3ccccn3)s2)nc1 — higher, -6.58%
- Cc1cccc(C)c1NC(=O)CSc1nnc(CCCCCNC(=O)OC(C)(C)C)o1 — lower, -17.8%
- COC(=O)c1cc(NS(=O)(=O)c2ccc(N3CCOCC3)c(NC(C)=O)c2)cc(C(=O)OC)c1 — higher, -1.8%
- COCC1CCN(C(=O)c2cc(COc3ccc(F)cc3F)on2)C1 (centres unmarked) — higher, -13.2%
- COc1cccc(CNc2ccc(N3CCCCC3)cc2)c1OC — higher, 2.2%
- Cc1ccc(C)c(NS(=O)(=O)c2c(C)nn(C)c2C)c1 — higher, 11%
- COc1ccc(N2CC(C(=O)Nc3nnc(SCC(=O)NCC4CCCO4)s3)CC2=O)cc1 (centres unmarked) — higher, 14.7%
- Oc1ccccc1/C=N/Nc1ccccc1 — higher, 11.7%
- COC(=O)C1=C(C(=O)OC)[C@@H]2N(C)c3ccc(OC)cc3[C@@]23C[C@@H](C(=O)OC)N(C(=O)c2cccs2)C3=N1 — lower, -68.3%
- CCOC(=O)N1CCN(C(=O)CSc2ncnc3ccccc23)CC1 — lower, -24.4%
- C[C@]12C(=O)N(c3cccc(Cl)c3)C(=O)N1[C@H]1c3ccccc3OC[C@@H]1[C@H]2c1ccccc1 — higher, 25.4%
- Cn1nc(C(C)(C)C)c([N+](=O)[O-])c1C(=O)NC1CCCCC1 — lower, -44.7%
- CCOc1cccc(C(=O)NC2CCCCC2)c1 — higher, -14%
- CCOCCCNCC(=O)Nc1ccc(OC(F)(F)F)cc1.Cl — lower, -56.4%
- CSc1nc2nc(C)cc(-c3ccccc3)n2n1 — higher, -10.7%
- CCN1CCN(c2ncnc3scc(-c4ccc(C)c(C)c4)c23)CC1 — lower, -76.4%
- CC(=O)NCCNC(=O)CCNC(=O)c1ccc(Cl)cc1 — higher, 4.19%

Reference: article PMC4336329 (PLoS ONE, 2015)
